According to PubChem BioAssay AID624173 (National Center for Advancing Translational Sciences (NCATS), 2012):
Hit rate of the full screen: of about 410,000 compounds, about 490 (0.12%) were called active. Inconclusive means that the source gave no clear call. Such entries were picked first, then a sample of the others. The call rests on the fitted dose curve; in most records, active means well fitted inhibition curve with a large enough effect; inconclusive means small, poorly fitted or top-dose-only effect; inactive means flat fitted curve, though single readings scatter. A potency beside an inconclusive call is a rough fit, not a confirmed value.

The molecules below were run against pyruvate kinase (Trypanosoma brucei) (UniProt Q57TT1) (assay: qHTS of Trypanosoma Brucei Inhibitors). Settings: TbPYK enzyme, Kinase-Glo Plus ATP luminescence, 45 min; series mostly up to 76.8 µM.
Procedure, shortened: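 Luminescence from Kinase-Glo Plus, added after a 45-minute room-temperature reaction, served as the end-point read-out. The enzyme and substrate were preincubated with compound before ADP (130 uM final) initiated turnover. Concentration-effect curves came from normalized qHTS data.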
Further: nearly all actives have a fitted effect of over 50% in size.
Potency means the concentration at half of the fitted maximal effect; tags describe the fitted curve by direction and shape.

Row | Compound | Potency
1 | COc1ccc(CN2C(=O)c3cccnc3C2=O)cc1S(=O)(=O)N1CCCCC1 | inactive
2 | O=C1/C(=C/c2ccc(O)cc2)COc2ccccc21 | inconclusive: 31.6 µM [inhibitor, partial curve, poor fit]
3 | O=C(Nc1sc2c(c1C(=O)O)CCCC2)c1ccc(F)cc1 | inactive
4 | COC(=O)CSc1nnc(-c2ccccn2)n1N | inactive
5 | CC1CCN(C(=O)c2ccc3ccccc3c2)CC1 | inactive
6 | CCNC(=S)N1CCCCC1CO (stereo unspecified) | inactive
7 | CC(=O)c1ccc(Oc2nc(C)nc3c2oc2ccccc23)cc1 | inactive
8 | O=C(Nc1ccccc1C(F)(F)F)NC1(C(=O)N2CCOCC2)CCCCC1 | inconclusive: 39.8 µM [inhibitor, partial curve, poor fit]
9 | O=[N+]([O-])c1ccc(Oc2cnc3ccccc3n2)cc1 | inactive
10 | COc1cccc(CNC(=O)Cc2ccc(-n3c(=O)[nH]c4ccccc4c3=O)cc2)c1 | inactive
11 | C=CCn1c(CNS(=O)(=O)c2ccc(F)cc2)n[nH]c1=S | inconclusive: 17.8 µM [inhibitor, partial curve]
12 | CN(c1ccccc1)c1nc(N)c([N+](=O)[O-])c(NCCO)n1 | inactive
13 | CCN(C(=O)COC(=O)c1ccc(O)cc1O)c1c(N)n(Cc2ccccc2)c(=O)[nH]c1=O | inactive
14 | CN(Cc1ccco1)C(=O)Cn1cc(S(=O)(=O)N2CCCC2)c(S(=O)(=O)N2CCCC2)c1 | inactive
15 | CC(CNC(=O)c1ccc(Br)o1)NC(=O)c1ccc(Br)o1 (stereo unspecified) | inconclusive: 20 µM [inhibitor, partial curve]
16 | Cc1ccc(C2=CC(c3ccccc3F)n3c(nc4ccccc43)N2)cc1C (stereo unspecified) | inactive
17 | Nc1ccc(N2CCCCC2)c2nonc12 | inconclusive: 28.2 µM [inhibitor, single point]
18 | CCOC(=O)c1c(N)sc(-c2ccccc2)c1C | inactive
19 | Cc1cc(C=C2C(=O)N(C)C(=S)N(C)C2=O)c(C)n1C1CCCCC1 | inactive
20 | Cc1c(C(=O)O)cnc2c([N+](=O)[O-])cnn12 | inconclusive: 35.5 µM [inhibitor, partial curve, poor fit]
21 | C=CCn1c2ccccc2c2n[nH]c(=S)nc21 | inconclusive: 22.4 µM [inhibitor, partial curve]
22 | Cc1cccc(-n2c(-c3csc(C)c3C)n[nH]c2=S)c1 | inconclusive: 2.51 µM [inhibitor, full curve, poor fit]
23 | CN(C(=O)c1sc2nc(N3CCOCC3)c3c(c2c1N)CCCC3)c1ccccc1 | inconclusive: 28.2 µM [inhibitor, single point]
24 | COc1ccc(OC)c(NC(=O)CSc2ccc(-c3ccco3)nn2)c1 | inconclusive: 25.1 µM [inhibitor, partial curve, poor fit]

Row | Compound | Potency
25 | Cc1nc(SCC(=O)Nc2ccc(Cl)cc2[N+](=O)[O-])nc(C)c1C | inconclusive: 35.5 µM [inhibitor, partial curve, poor fit]
26 | CCn1cnc2cc(NCc3nc4ccccc4n3C)ccc21 | inconclusive: 35.5 µM [inhibitor, partial curve, poor fit]
27 | Cc1nc2ccc(NC(=O)c3ccco3)cc2nc1C | inactive
28 | COc1ccccc1N(C(=O)c1snc(C(N)=O)c1N)C(C(=O)NC1CCCC1)c1ccc2ncccc2c1 (stereo unspecified) | inactive
29 | CC(=O)Nc1ccc(S(=O)(=O)Nc2nnc(C3CCCCC3)s2)cc1 | inconclusive: 39.8 µM [inhibitor, single point]
30 | CCC(C)(C)n1nnnc1C(c1cc2cc(C)ccc2[nH]c1=O)N1CCCc2ccccc21 (stereo unspecified) | inconclusive: 15.8 µM [inhibitor, partial curve, poor fit]
31 | CN1C(=O)C(Cl)(Cl)C(=O)c2ccccc21 | active: 14.1 µM
32 | CCOc1[nH]c(/N=C/c2ccco2)c(C#N)c1C#N | inconclusive: 35.5 µM [inhibitor, partial curve]
33 | CSc1ccccc1OCc1cc(C(=O)N2CCN(C3CCCC3)C(=O)C2)no1 | inconclusive: 28.2 µM [inhibitor, single point]
34 | Cc1ccc2cc(C3CC(c4ccco4)=NN3C(=O)CCC(=O)O)c(Cl)nc2c1 (stereo unspecified) | inconclusive: 35.5 µM [inhibitor, single point]
35 | CCOC(=O)C(=CNc1ccccc1Cl)C(=O)OCC | inactive
36 | Cc1nc(NC(=O)c2ccc([N+](=O)[O-])cc2Cl)sc1C(=O)N(C)C | inconclusive: 20 µM [inhibitor, partial curve]
37 | COc1ccc(Cc2c(O)[nH]c(=S)[nH]c2=O)cc1 | inconclusive: 35.5 µM [inhibitor, partial curve, poor fit]
38 | CC[N+](C)(CC)CCCOC(=O)C(O)(c1ccccc1)C1CCCCC1 (stereo unspecified) | inconclusive: 35.5 µM [inhibitor, partial curve]
39 | Cc1ccc(Oc2ccccc2/C=N/O)cc1 | inconclusive: 28.2 µM [inhibitor, single point]
40 | COC(=O)c1sccc1NC(=O)Nc1ccccc1F | inconclusive: 39.8 µM [inhibitor, partial curve, poor fit]
41 | Cc1cccc(Cn2c(=O)n(CC3CCC(C(=O)N4CCOCC4)CC3)c(=O)c3sccc32)c1 (stereo unspecified) | inactive
42 | Cc1ccc(-c2nn(-c3ccccc3)cc2C=C2C(=O)CC(C)(C)CC2=O)cc1 | inconclusive: 25.1 µM [inhibitor, partial curve, poor fit]
43 | COc1ccc(C(=O)/C=C/Nc2ccccn2)cc1 | inconclusive: 22.4 µM [inhibitor, partial curve]
44 | CCOC(=O)[C@]12Cc3ccccc3[C@H]1N(C(C)C)C(=O)c1ccccc12 | inconclusive: 31.6 µM [inhibitor, partial curve, poor fit]
45 | Cc1ccc(C(=O)N2CCc3ccccc32)cc1NC(=O)c1ccco1 | inconclusive: 1.78 µM [inhibitor, full curve]
46 | S=c1[nH]nc(-c2ccncc2)n1Cc1ccco1 | inconclusive: 14.1 µM [inhibitor, partial curve, poor fit]
47 | CCc1ccc(-c2cn(-c3nc(C)cc(C)n3)c(=N)o2)cc1 | inactive
48 | O=S1(=O)C=C(Sc2nnc(-c3ccccc3)o2)c2ccccc21 | inconclusive: 35.5 µM [inhibitor, partial curve, poor fit]

Row | Compound | Potency
49 | C=CCOc1ccccc1/C=c1\sc2nc(-c3oc4ccccc4c3C)nn2c1=O | inconclusive: 7.94 µM [inhibitor, full curve, poor fit]
50 | O=C(Nc1ccon1)C1CCN(S(=O)(=O)c2cccs2)CC1 | inconclusive: 39.8 µM [inhibitor, single point]
51 | Nc1ccc(/C=C/C(=O)c2cccs2)cc1 | inactive
52 | Cc1ccccc1OCc1nnc(SCC(=O)Nc2c(C)n(C)n(-c3ccccc3)c2=O)n1-c1ccccc1 | inconclusive: 31.6 µM [inhibitor, partial curve, poor fit]
53 | CCN(CC)C(=O)c1cccc(-c2csc(C(C)(O)c3ccc(OC)cc3)n2)c1 (stereo unspecified) | inconclusive: 39.8 µM [inhibitor, single point]
54 | O=C1NC(=O)N(c2ccccc2F)C(=O)/C1=C/c1ccc(Sc2nc3ccccc3[nH]2)o1 | inconclusive: 25.1 µM [inhibitor, partial curve]
55 | Cc1cc(C)n(Cc2ccc(NC(=O)c3nn(C)cc3[N+](=O)[O-])cc2)n1 | inactive
56 | CCN1/C(=C/C=C/c2sc3ccccc3[n+]2CC)Sc2ccccc21 | inconclusive: 31.6 µM [inhibitor, partial curve, poor fit]
57 | COC(=O)c1ccc(NC2=CC(=O)CC(C)(C)C2)cc1 | inconclusive: 35.5 µM [inhibitor, single point]
58 | Cc1ccc(C)c(-c2nnc(NC(=O)CCS(=O)(=O)c3ccccc3)o2)c1 | inactive
59 | Fc1ccccc1/C=C1\CCCC2=C1NC(=S)NC2c1ccccc1F (stereo unspecified) | inconclusive: 39.8 µM [inhibitor, single point]
60 | Cc1ccc(Cn2c(SCC(N)=O)nc3c2c(=O)n(C)c(=O)n3C)cc1 | inconclusive: 31.6 µM [inhibitor, single point]
61 | N#C/C(=C/c1ccc(N2CCOCC2)o1)c1ccc(Cl)cc1 | inconclusive: 28.2 µM [inhibitor, partial curve]
62 | Cc1nnc(SCC(=O)c2ccc(S(=O)(=O)N3CCOCC3)cc2)n1-c1ccccc1 | inconclusive: 20 µM [inhibitor, partial curve]
63 | S=c1[nH]nc(-c2ccccn2)n1/N=C/c1ccc(Cl)c(Cl)c1 | inconclusive: 3.98 µM [inhibitor, full curve]
64 | O=C1C=CC(=O)N1c1ccc(-c2nc3ccccc3o2)cc1 | active: 11.2 µM
65 | CCN1C=CC(=C2C(=O)c3ccccc3C2=O)C=C1 | inconclusive: 39.8 µM [inhibitor, single point]
66 | O=C(O)Cc1csc(Nc2cccc(Cl)c2)n1 | inconclusive: 3.55 µM [inhibitor, full curve, poor fit]
67 | Fc1ccccc1Cc1noc(CN2CCC(OCc3cccnc3)CC2)n1 | inactive
68 | COc1ccc(C)cc1NC(=O)C(Sc1nnc(Nc2ccccc2F)s1)c1ccccc1 (stereo unspecified) | inactive
69 | O=[N+]([O-])c1ccc(O)c(-c2nn[nH]n2)c1 | inconclusive: 35.5 µM [inhibitor, single point]
70 | Cc1ccc(-n2nnnc2C(Cl)(Cl)c2nnnn2-c2ccc(C)cc2)cc1 | inconclusive: 3.98 µM [inhibitor, full curve, poor fit]
71 | COc1cccc(C(=O)NC(=S)Nc2ccccc2N2CCCC2)c1 | inconclusive: 50.1 µM [inhibitor, partial curve, poor fit]
